Experimental data taken from publication PMC12136788.
This is one part of the list.

B1: chr8:117878989:117878990:-_ENSG00000164754_ENST00000297338|hu_hu|hu_hu_hu_mus_True|38_68 (ssRNA)
RNA: GGGAGUUCUACAGUCCGACGAUCCCAGAGGCCCUCGUUUACUGAGGACAAAAUGUGCGUAGAACAUUGUUCUGGCUUGCUAUGAAAUAAGAAGAAAACCUUGCUCUGGCGGGGAGCCGGGAGGGGUGGGUGGCCCGGGGAGGGCAACAGAGGAUUGAGCAUCA
B2: 115632485_115632605_2900_3pUTR_ENSG00000148158_ENST00000374232|human|control|control (ssRNA)
RNA: GGGAGUUCUACAGUCCGACGAUCUCUGAAGCAGCGCCUUAACACAGCUGUUUCAUUAAAAAUAAACAACAAAAAAACUACUGCUUAUUUGAGGCUCAGAUUCGUAGUUUUACAGGGAUGAGCCACAGAUGAAAGAACACAAACCAACAGAGGAUUGAGCAUCA
B3: 55018132_55019424_1508_CDS_ENSMUSG00000029777_ENSMUST00000003572|mouse|control|control (ssRNA)
RNA: GGGAGUUCUACAGUCCGACGAUCGAGAUACUCCAGCACUAGCUUUGCAUCCUUCUUGUACGCCUUGCCCACGGCGCCCUUGUUGGGCUCAAACUGUACAACGUUAACUGUUUUGGGUUCUUUCAGAGGUUUCUCAGCUACUAGCAACAGAGGAUUGAGCAUCA
B4: 15130537_15131120_5856_CDS_ENSMUSG00000046111_ENSMUST00000161132|mouse|control|control (ssRNA)
RNA: GGGAGUUCUACAGUCCGACGAUCAUCUGUGAUUUCAUAACUUAAGAAGCUUCCAGUAGAAACAGUUACUGAAGACAAUGGCUCCUGAGAAAUCUCUUGUGUUUCAGCCUCAUCGUCUGGCUUUCCAAGUGGACCCAGGUUUGUCAACAGAGGAUUGAGCAUCA
B5: chr20:57570089:57570090:+_ENSG00000101158_ENST00000344018|hu_hu|FALSE|FALSE (ssRNA)
RNA: GGGAGUUCUACAGUCCGACGAUCAAAAUUUACUUAUUACUUGUUCUUAGCAAAUUAAGACAAUUACAAUAAAACAUCAGCUAACUGGGUUCUUGUGAGAAAACUGAGGUCAGCUUGGAAAGGAGUUCCCCGAGUGGAGUUCCCCAACAGAGGAUUGAGCAUCA
B6: chr19:16212804:16212805:+_ENSG00000167460_ENST00000300933|hu_mus|hu_hu_hu_mus_False|8_108 (ssRNA)
RNA: GGGAGUUCUACAGUCCGACGAUCAACAAAUAUGCAAUGAAGGAAAGAUGUAACAUGGAACAGCAUUAAAGCUCAGUCAGAAGGCACAUGGGCAACAAUGAUCACCCCAGCAUUCUCGCUUGGAAUGUGCUUGAGAAAUCUGUUCAACAGAGGAUUGAGCAUCA

The binders below were run against T1, UNK ZnF1-3 (human, UniProt Q9C0B0 31-174) (assay: nsRBNS (natural sequence RNA bind-n-seq); RBNS binding buffer (assumed for nsRBNS): 25 mM Tris pH 7.5, 150 mM KCl, 3 mM MgCl2, 0.01% Triton X-100, 500 ug/ml BSA, 20 U/ml SUPERase-In, 4 C; UNK is unkempt and MSI1 is Musashi-1; names of the RNAs are library labels; protein concentration not given here; high values mean tight binding).
T1 sequence: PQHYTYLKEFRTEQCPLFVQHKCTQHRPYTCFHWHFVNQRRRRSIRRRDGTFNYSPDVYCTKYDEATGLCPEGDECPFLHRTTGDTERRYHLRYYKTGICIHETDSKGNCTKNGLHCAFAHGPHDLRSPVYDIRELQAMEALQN

Row | Binder | binding signal [enrichment R]
1 | B1 | 1.81
2 | B2 | 1.61
3 | B3 | 0.781
4 | B4 | 0.993
5 | B5 | 1.02
6 | B6 | 1.23
